Experimental data published in PubChem BioAssay AID330 (DTP/NCI, 2004).
Toxic doses and inconclusive results are not listed. A number of entries come with more than one value. They are shown here; other results are not. The source may hold further records. Values given together repeat one measurement across runs, samples, wells, individuals or studies. Records carry a tag for their origin. A, B and so on number the origins entry by entry.

System: P388 leukemia ip, CD2F1 mice, survival T/C
Experiment: NCI In Vivo Anticancer Drug Screen. Data for tumor model P388 Leukemia (intraperitoneal) in CD2F1 (CDF1) mice
Settings: endpoint: median survival time, higher = longer survival
[1] = dose: 12.5 mg/kg/injection, schedule: Q04DX002 (ip), vehicle: saline with Tween-80
[2] = dose: 25.0 mg/kg/injection, schedule: Q04DX002 (ip), vehicle: saline with Tween-80

`[Cl][Pt+2][Cl].[NH-]C(c1ccccc1)C([NH-])c1ccccc1` (stereo not drawn) was tested, and the T/C [1] was 120 % of control, 121 % of control, 122 % of control [sample A] and 161 % of control [sample B] and the T/C [2] was 121 % of control [sample A] and 164 % of control [sample B].

For `CCn1c(C)c(COC(=O)NC)c(COC(=O)NC)c1-c1ccc(Cl)c(Cl)c1`, the T/C (dose: 25.0 mg/kg/injection, schedule: Q01DX009 (ip), vehicle: distilled water + Tween-80) was 92 % of control and 172 % of control.

For `O=S(=O)(O)O.[NH-]C(c1ccccc1)C([NH-])c1ccccc1.[Pt+2]` (stereo not drawn), the T/C (dose: 3.12 mg/kg/injection, schedule: Q04DX002 (ip), vehicle: saline) was 114 % of control and 160 % of control and the T/C (dose: 50.0 mg/kg/injection, schedule: Q04DX002 (ip), vehicle: saline) was 120 % of control and 169 % of control.

In the case of `CO[C@H]1C[C@](C)(O)Cc2cc3c(c(O)c21)C(=O)c1c(O)cc2c(c1C3=O)O[C@@H]1O[C@@]2(C)[C@H](O)[C@@H](N(C)C)[C@@H]1O`, the T/C (dose: 100.0 mg/kg/injection, schedule: Q04DX003 (ip), vehicle: other) is reported as 100 % of control and 193 % of control and the T/C (dose: 200.0 mg/kg/injection, schedule: Q01DX001 (sc), vehicle: other) is reported as 103 % of control and 156 % of control.

`CCCCOc1ccc(-c2c(COC(=O)NC)c(COC(=O)NC)c(C)n2C)cc1` was tested, and the T/C (dose: 60.0 mg/kg/injection, schedule: Q01DX009 (ip), vehicle: distilled water + Tween-80) was 90 % of control and 171 % of control.

With `C=C1COC(O)(C2OCOC(C3CC(=O)NC(=O)C3)C2O)C1C` (stereo not drawn) the T/C (dose: 0.01 mg/kg/injection, schedule: Q01DX009 (ip), vehicle: water) was 171 % of control [sample A] and 101 % of control [sample B], the T/C (dose: 1.87 micrograms/kg/injection, schedule: Q01DX009 (ip), vehicle: water) was 109 % of control [sample A] and 157 % of control [sample B] and the T/C (dose: 3.75 micrograms/kg/injection, schedule: Q01DX009 (ip), vehicle: water) was 110 % of control [sample A] and 161 % of control [sample B].

For `CC([NH-])CC(C)[NH-].[Br][Pt+2][Br]` (stereo not drawn), the T/C [2] was 190 % of control [sample A] and 93 % of control [sample B] and 174 % of control [sample C].

In the case of `CN(C)N=Nc1ccc(S(=O)(=O)Nc2ncccn2)cc1`, the T/C (dose: 100.0 mg/kg/injection, schedule: Q04DX003 (ip), vehicle: saline with Tween-80) is reported as 95 % of control and 157 % of control and the T/C (dose: 200.0 mg/kg/injection, schedule: Q04DX003 (ip), vehicle: saline with Tween-80) is reported as 91 % of control and 169 % of control.

`CC([NH-])CC(C)[NH-].[Cl][Pt+2][Cl]` (stereo not drawn) was tested, and the T/C (dose: 3.12 mg/kg/injection, schedule: Q04DX002 (ip), vehicle: saline with Tween-80) was 123 % of control [sample A] and 169 % of control [sample B], the T/C (dose: 6.25 mg/kg/injection, schedule: Q04DX002 (ip), vehicle: saline with Tween-80) was 170, 105, 168, 160 % of control [separate samples] and the T/C [1] was 196 % of control [sample A] and 163 % of control [sample B] and 88 % of control [sample C].

With `O=C1NC2C(=CC(O)C(O)C2O)c2cc3c(cc21)OCO3` (stereo not drawn) the T/C (dose: 12.5 mg/kg/injection, schedule: Q01DX009 (ip), vehicle: saline + alcohol) was 119 % of control and 161 % of control.

In the case of `CCCCOP(=O)(N1CC1(C)C)N1CC1(C)C` (stereo not drawn), the T/C (dose: 16.0 mg/kg/injection, schedule: Q01DX009 (ip), vehicle: saline) is reported as 123 % of control and 182 % of control and the T/C (dose: 80.0 mg/kg/injection, schedule: Q01DX001 (ip), vehicle: saline) is reported as 121 % of control and 162 % of control.

In the case of `COc1cccc2c1C(=O)c1c(O)c3c(c(O)c1C2=O)C[C@@](O)(C(=O)CN1CCOCC1)C[C@@H]3OC1CC(N)C(O)C(C)O1` (stereo partly drawn), the T/C (dose: 6.25 mg/kg/injection, schedule: Q01DX009 (ip), vehicle: water) is reported as 120 % of control and 168 % of control and the T/C (dose: 12.5 mg/kg/injection, schedule: Q01DX009 (ip), vehicle: water) is reported as 117 % of control, 157 % of control, 179 % of control.

In the case of `O=C1CN(CN2CCOCC2)C(=O)CN1CN1CCOCC1`, the T/C (dose: 100.0 mg/kg/injection, schedule: Q01DX009 (ip), vehicle: saline) is reported as 109 % of control and 155 % of control and the T/C (dose: 200.0 mg/kg/injection, schedule: Q01DX009 (ip), vehicle: saline) is reported as 123 % of control and 150 % of control.

`CC(=O)OCN(C)N=Nc1ccc(C(C)=O)cc1` was tested, and the T/C (dose: 240.0 mg/kg/injection, schedule: Q01DX005 (ip), vehicle: Klucel (hydroxypropylcellulose) (HPC)) was 101 % of control, 167 % of control, 191 % of control.

In the case of `Cc1ccc(C(=O)NC2C(=O)NC(C(C)C)C(=O)N3CCCC3C(=O)N(C)CC(=O)N(C)C(C(C)C)C(=O)OC2C)c2c1Oc1c(c(C(=O)NC3C(=O)NC(C(C)C)C(=O)N4CCCC4C(=O)N(C)CC(=O)N(C)C(C(C)C)C(=O)OC3C)c3nc(-c4ccccc4)c(=O)oc3c1C)N2` (stereo not drawn), the T/C (dose: 0.5 mg/kg/injection, schedule: Q01DX005 (ip), vehicle: water) is reported as 90 % of control and 159 % of control.

In the case of `COc1cccc2c1C(=O)c1c(O)c3c(c(O)c1C2=O)C[C@@](O)(/C(CO)=N/NC(=O)c1ccccc1)C[C@@H]3OC1CC(N)C(O)C(C)O1` (stereo partly drawn), the T/C (dose: 16.0 mg/kg/injection, schedule: Q01DX009 (ip), vehicle: water) is reported as 114 % of control and 375 % of control.

With `[O-]c1cc2c3c(c1)c1cc4c(cc1c[n+]3C=C2)OCO4` the T/C (dose: 50.0 mg/kg/injection, schedule: Q01DX009 (ip), vehicle: other) was 88 % of control and 152 % of control.
